From the supplement of paper PMC10338343
± gives the standard deviation. This is a selection; strong and weak results do not stand in their true shares.

Test system: MIWI (PIWIL1) piRISC loaded with piRNA #1 (30 nt)
Assay: pre-steady-state target cleavage rate (min^-1); MIWI and MILI are mouse PIWI proteins and EfPiwi is from a freshwater sponge; tags in brackets are library labels; higher = faster piRNA-guided slicing of the target
Details: guide: piRNA #1 5'p-UGAGGUAGUAGGUUGUAUAGUAUCCAGAGG; auxiliary factor: 500 nM mouse GTSF1
Outline: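 Cleave-'n-Seq used a transcribed, DNA-blocked target RNA library at 0.1 nM and active affinity-purified piRISC with one synthetic guide at 1 nM, with or without 500 nM GTSF1 partner protein, in HEPES–potassium acetate buffer at 33 °C for 0–8 or 0–960 min. Uncleaved targets were sequenced and normalised to depth and to weakly complementary targets, and three trials were pooled with k3 capped at 0.0001 min^-1. The pre-steady-state cleavage rate was estimated by a burst-and-steady-state fit.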

| Sequence | pre-steady-state target cleavage rate |
| --- | --- |
| GGAGACCUAUGAAUACAACCUACAUGGAGA [g8:g18:cont:t1A] | < 0.0001 |
| GGAGACCUAACUAUACAACCUACUAGGAGA [g6:g21:cont:t1A] | 0.0453 ± 0.015 |
| GGAGACCUAUGUAUACAAGCUACUACCACA | 0.057 ± 0.01 |
| GGUCUGGAUAGUAUACAACCUACUACCACA | 0.341 ± 0.035 |
| GGAGACCUAUCUAUACAACCAACUACCACA | 0.0112 ± 0.0031 |
| CCUCUGGAUACUAUACAAGCUACUACCUGA | 0.645 ± 0.049 |
| GGAGACGAUACUUUACAACGUACUACCUCA | 0.761 ± 0.049 |
| GGAGACCUAGCUAUACAACCUACUACCUCA | 1.18 ± 0.17 |
| GGAGACCAUACUAUUCAUCCUACUACCUCA | 0.841 ± 0.068 |
| GGACUGGAUACUAUACAACCUACUACCUGA | 0.57 ± 0.12 |
| GGAGACCUUAAUAUACAACCUACUACCUCA | 0.181 ± 0.02 |
| GGACUGCAUACUAUACAACCUUCUACCUCA | 0.58 ± 0.041 |
| GGAGAGGAUACUAUACAACCUACAACGUCA | 0.00836 ± 0.0037 |
| GGAGACCUAACUUUACAACCUACUACCUCA | 0.373 ± 0.061 |
| GGAGAGGAUACUAUACAACCUAGUACGUCA | 0.0287 ± 0.011 |
| GGAGACGAUACUAUACAACCUACUACUCA | 0.62 ± 0.04 |
| GCUGUGGUUACUAUACAACCUACUACCUCA | 2 ± 0.13 |
| GGAGACGAUACUAUACAACCUGACUACCUCA | 0.00519 ± 0.0015 |
| GGAGUGGAUACUAUACAACGUACUACGUCA | 0.237 ± 0.03 |
| GCUCUGGAUACUAUAAAACCUACUACCUCA | 1.6 ± 0.094 |
| GCUCUGGAUACUAUACAACGUACUACGUCA | 0.762 ± 0.078 |
| GGAGUGGAUACUAUACAACCUUCUAGCUCA | 0.00427 ± 0.0018 |
| GGACUGGAUACUAUUGUACCUACUACCUCA | 0.11 ± 0.024 |
